Experimental data taken from publication PMC4336329 (PLoS ONE, 2015).
Screen size: about 310,000 compounds; about 2,200 (0.71%) showed an effect of 50% or more. The effect is printed as a negative number. The list shows a part of the results.

biological target: human ether-à-go-go-related gene (hERG) potassium channel (human, UniProt Q12809); test: primary screen, population patch clamp on CHO cells stably expressing hERG
Sequence (Q12809 whole entry, looked up): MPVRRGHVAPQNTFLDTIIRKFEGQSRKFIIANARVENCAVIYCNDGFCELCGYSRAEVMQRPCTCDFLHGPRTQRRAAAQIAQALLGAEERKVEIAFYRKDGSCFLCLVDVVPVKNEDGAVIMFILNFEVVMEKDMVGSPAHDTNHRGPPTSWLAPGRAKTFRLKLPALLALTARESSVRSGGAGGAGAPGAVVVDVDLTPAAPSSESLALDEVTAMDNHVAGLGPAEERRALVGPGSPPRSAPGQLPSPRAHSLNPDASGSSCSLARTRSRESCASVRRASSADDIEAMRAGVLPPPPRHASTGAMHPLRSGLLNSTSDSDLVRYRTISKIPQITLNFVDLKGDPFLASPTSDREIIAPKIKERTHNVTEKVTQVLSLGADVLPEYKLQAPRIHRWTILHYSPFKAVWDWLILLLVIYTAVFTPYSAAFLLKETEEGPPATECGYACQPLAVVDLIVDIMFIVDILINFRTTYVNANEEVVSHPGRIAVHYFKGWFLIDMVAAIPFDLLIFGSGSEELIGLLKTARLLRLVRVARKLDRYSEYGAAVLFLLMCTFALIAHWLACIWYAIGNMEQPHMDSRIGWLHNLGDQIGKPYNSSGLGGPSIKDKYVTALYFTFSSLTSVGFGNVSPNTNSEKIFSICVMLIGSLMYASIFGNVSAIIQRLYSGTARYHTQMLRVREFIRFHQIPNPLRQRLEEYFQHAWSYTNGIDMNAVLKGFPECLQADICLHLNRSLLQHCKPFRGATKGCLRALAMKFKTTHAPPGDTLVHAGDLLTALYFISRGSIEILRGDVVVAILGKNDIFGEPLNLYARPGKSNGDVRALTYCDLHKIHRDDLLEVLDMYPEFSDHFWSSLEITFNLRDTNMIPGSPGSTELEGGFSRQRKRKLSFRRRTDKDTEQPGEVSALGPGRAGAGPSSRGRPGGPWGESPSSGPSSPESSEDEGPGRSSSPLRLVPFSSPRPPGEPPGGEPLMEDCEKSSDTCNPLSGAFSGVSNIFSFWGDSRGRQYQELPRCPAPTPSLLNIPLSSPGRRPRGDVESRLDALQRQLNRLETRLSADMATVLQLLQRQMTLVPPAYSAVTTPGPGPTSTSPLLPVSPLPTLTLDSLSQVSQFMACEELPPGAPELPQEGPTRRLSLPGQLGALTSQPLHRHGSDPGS

Compound | hERG current change (%, negative = inhibition) at 1uM [%]
CCCCCc1nnc(NC(=O)Cc2cccs2)s1 | 12.6
N#C/C(=C\Nc1ccc(F)c(Cl)c1)S(=O)(=O)c1ccccn1 | 7.7
CN1C(=O)CSc2ccc(NC(=O)Nc3ccccn3)cc21 | 8.01
COc1cc(C(=O)N2CCN(c3ccccc3)CC2)c([N+](=O)[O-])cc1OC | 17.5
CCOc1ccc2nc(N3C(=O)CNC3=S)sc2c1 | 10.8
CC1CCCC(NC(=O)C2N(CCCN3CCCC3)C(=O)C3C(C(=O)Nc4ccc(Cl)cc4)C4C=CC32O4)C1C (centres unmarked) | 0.0737
CN(c1ccccc1)S(=O)(=O)c1ccc(C(=O)NCCc2ccccc2)cc1 | 15.6
C=CCn1cc(C(=O)N2CCN(C)CC2)c(=O)c2cc(S(=O)(=O)N(CC)CC)ccc21 | 6.93
CC(C)c1ccc(/C=C/c2ccc(=O)n(C)n2)cc1 | -0.478
COc1cc(C)c(C#N)c(OC)n1 | 10.1
O=C(c1cccc(Cl)c1)C1CCCN(S(=O)(=O)c2ccccc2)C1 (centres unmarked) | 5.87
C=CCOc1cccc(CNCCCN2CCOCC2)c1.Cl | 9.02
c1ccc(-n2nnnc2NC2CCCCC2)cc1 | 6.98
COc1cc(/C=N/NC(=O)c2cccc([N+](=O)[O-])c2)ccc1O | 0.107
COc1ccc(C(=O)NNC(=S)NC(=O)c2cc(-c3ccccc3)nc3ccccc23)cc1 | 7.44
O=C(c1ccc2snnc2c1)N1CCCCC1 | 9.41
O=C(O)C(=O)O.O=[N+]([O-])c1cccc(CN2CCN(Cc3ccc(Br)cc3)CC2)c1 | -22.2
Cn1c(=O)c(N)c2c3c(c(Br)ccc31)C(=O)c1ccccc1-2 | 6.1
CN1CC[n+]2c(CN3C(=O)c4ccccc4C3=O)csc21.[I-] | 10.7
O=C(O)C(Cc1ccccc1)n1cnnn1 (centres unmarked) | 13.5
Cn1c(SCC(=O)c2ccccc2)nnc1C1CC1 | -2.68
O=C(CSc1ccc2ccccc2n1)NCCC1=CCCCC1 | 9.13
O=C(CCn1cccn1)Nc1ccc2c(c1)OCCO2 | 22.2

Compound | hERG current change (%, negative = inhibition) at 1uM [%]
COC(=O)c1ccccc1NC(=O)CN(Cc1ccccc1)S(C)(=O)=O | 10.5
Clc1ccc(Oc2cccc(/C=N/n3cnnc3)c2)cc1 | 7.8
Cc1nnc(NCc2n[nH]c(=O)c3ccccc23)c2ccccc12 | 9.65
O=C(Nc1ccccc1F)C1C2C=CC3(O2)C1C(=O)N(c1cccnc1)C3C(=O)NC1CCCCC1 (centres unmarked) | 9.59
Nc1nonc1-n1nnc(C(=O)N/N=C/c2ccccc2F)c1CN1CCc2ccccc21 | 9.17
O=S(=O)(Nc1ccc2c(c1)OCCO2)c1ccc2oc3ccccc3c2c1 | 3.2
CCOC(=O)C1CCCN(c2c(N3CCN(C4CCCCC4)CC3)c(=O)c2=O)C1 (centres unmarked) | -33.8
CCCn1nnnc1NCc1ccccc1Cl | 7.96
COC(=O)c1ccc(C(=O)OC)c(NC(=O)COC(=O)C23CC4CC(CC(O)(C4)C2)C3)c1 | 5.8
COc1ccc(C(=O)NCCCSC)cc1OC1CCN(C(C)C)CC1 | 13.4
CCN(CC(O)CON=C1c2ccccc2-c2ccccc21)S(=O)(=O)c1ccc(Cl)cc1 (centres unmarked) | 12.7
COCc1cc(/C=N\NC(=O)Cc2ccc(OC)cc2)ccc1OC | -7.21
CCN(CC)S(=O)(=O)c1cccc(NC(=O)CN2C(=O)c3ccc([N+](=O)[O-])cc3C2=O)c1 | 1.98
COCCN(CCOC)C(=O)COC(=O)c1cc([N+](=O)[O-])ccc1Cl | 6.59
CCOC(=O)c1c(C)c(C(=O)Nc2cc(OC)ccc2OC)c(C)n1CC | -4.47
N#CC(C#N)=Cc1ccc(N2CCCC2)cc1 | 5.75
CC(C)c1ccc(C(=O)N2CCN(c3cnn(C)c(=O)c3Cl)CC2)cc1 | -9.8
O=C(NCc1ccccc1Cl)C1CCCN(c2nc3ccsc3c(=O)s2)C1 (centres unmarked) | 11.8
CC1=Nc2cc(C(=O)O)ccc2Sc2ccc(Br)cc21 | 12
Cc1ccccc1N1CCN(S(=O)(=O)c2ccc3ccccc3c2)CC1 | 8.53
Cc1ccc(Oc2ncc(CN3CC(C)OC(C)C3)s2)cc1 (centres unmarked) | -3.38
O=C(O)C1CCCCC1C(=O)Nc1ccc2c(c1)OCCO2 (centres unmarked) | 8.99
N#C/C(=C\Nc1ccccc1O)c1nc2ccccc2o1 | 1.79

Compound | hERG current change (%, negative = inhibition) at 1uM [%]
CCOC(=O)C1CCN(CC(=O)c2c(C)[nH]c3cc(C)ccc23)CC1 | -26.8
Cc1csc(=N)n1Cc1ccccc1 | 6.5
CCCCN1C(=O)Cc2c1nc(N)c1c(N)nc(N(CCC)CCC)c(C#N)c21 | 14.5
COc1cccc(NC(=O)Nc2cc(C(=O)NCC3CCCO3)ccc2N2CC3CC(C2)c2cccc(=O)n2C3)c1 (centres unmarked) | 14.1
Cc1ccc2nc(NC(=O)CSCC(=O)Nc3cc(C)on3)sc2c1 | 11.7
COc1ccc(-c2cc(C(=O)O)c3c(C)nn(-c4ccccn4)c3n2)cc1 | -1.01
O=C(COc1ccc(F)cc1)N1CCC(c2ccccc2)C1 (centres unmarked) | -0.561
NC(=S)N/N=C/c1coc2ccc(F)cc2c1=O | 12.6
Cc1cc(-c2csc(NC(=O)C3=COCCO3)n2)c(C)n1C | 7.63
COc1ccc(OC)c2sc(N(CCN(C)C)C(=O)c3ccc4ccccc4c3)nc12.Cl | 17
COc1ccc(/C=C/c2cc(=O)c3cc(Cl)ccc3o2)cc1 | 9.88
O=C(NCCCl)Nc1cccc(Br)c1 | 10.3
C[C@@H](C(=O)Nc1cccc(S(=O)(=O)N2CCOCC2)c1)N1C(=O)C2CC=CCC2C1=O (some centres unmarked) | 17.4
COc1ccc(OC)c(NC(=O)Nc2ccc3[nH]ccc3c2)c1 | 10.4
N#Cc1cnn2c3c(cnc12)C(=O)N1CCc2ccccc2C1C3 (centres unmarked) | -2.75
CCCC(=O)NC(NC(=S)Nc1c(C)n(C)n(-c2ccccc2)c1=O)C(Cl)(Cl)Cl (centres unmarked) | 4.48
CCOc1ccc(NC(=O)COC(=O)COc2cccc3c2OC(C)(C)C3)cc1 | 13.4
CN1CCN(C(=O)N2c3ccccc3CCc3ccccc32)CC1 | 9.15
CCn1c(CC(=O)Nc2ccc(C)cc2)nnc1SCC(=O)NCc1ccccc1 | 13.3
Cc1nnc(SCC(=O)NC2CCCc3c2cnn3-c2ccccc2F)o1 (centres unmarked) | 12.9
Cc1cccc(N(C(=O)c2csnn2)C(C(=O)NC(C)(C)C)c2ccncc2)c1 (centres unmarked) | 4.27
FC(F)(F)c1cccc(NC(=S)NNC(=S)NCc2ccccc2)c1 | 17.6
CCn1cc(C(=O)OCc2ccccc2)c(=O)c2ccc(C)nc21 | 5.18

Compound | hERG current change (%, negative = inhibition) at 1uM [%]
CCOC(=O)N1CCN(C(=S)NC2CCCCC2)CC1 | 2.46
Cc1ccc(C(=O)c2cc([N+](=O)[O-])ccc2N2CC(C)OC(C)C2)cc1 (centres unmarked) | 3.53
Cc1ccccc1C(=O)N1CCN(c2ccc(NC(=O)c3ccccc3[N+](=O)[O-])cc2)CC1 | 7.34
CCOC(=O)N1CCN(C(=O)c2cccc(OC)c2O)CC1 | -4.58
CN(c1ccc(C(=O)Nc2cccnc2)cc1)S(=O)(=O)c1ccccc1 | 7.86
O=C(CN1CCOCC1)Nc1ccc2c(c1)CCC2 | 13.1
Cc1ccccc1-c1nc2cc(N)ccc2o1 | -5.63
CCOc1ccccc1CN1CCN(Cc2nc3c(s2)CCCC3)CC1CCO (centres unmarked) | -26.6
O=C(CN(C(=O)CNC(=O)c1ccco1)c1ccccc1F)NC1CCCCC1 | 17
CCOC(=O)N1CCN(C(=O)/C(=C/c2ccc(Br)cc2)NC(=O)c2ccc(OC)cc2)CC1 | -81.5
COc1cccc(Cn2nnc(C(=O)Nc3ccc(C)cc3)c2N)c1 | 16.5
Cc1cc(-c2nnco2)c(C)n1-c1ccc(F)cc1 | 6.92
CCOc1cc(/C=N/NC(=O)COc2cccc(C)c2)ccc1OC(=O)c1cccs1 | 6.51
COC(=O)Cc1c(C)c2ccc(OC(=O)c3ccco3)cc2oc1=O | 11
CSc1cccc(NC(=O)CSc2ccccc2)c1 | 10.1
CN1CCN(CCCNC(=O)CCN2C(=O)COc3ccccc32)CC1 | 12.2
C[C@H](NC(=O)c1nc[nH]c1C(=O)NCCCCCNC(=O)OC(C)(C)C)c1ccccc1 | 7.3
CCOc1ccc(/C=N/NC(=O)c2nnn(-c3nonc3N)c2-c2ccc(OCC)cc2)cc1 | 8.98
CC1(C)Cc2cccc(OCC(=O)OCC(=O)NCc3ccccc3)c2O1 | -1.51
COc1ccc(-c2nnc(N(C)C(=O)c3ccno3)s2)cc1 | 14.5
